The record followed here is article PMC4336329 (PLoS ONE, 2015).

The campaign covered roughly 310,000 compounds. About 14,000 (4.5%) showed an effect of 50% or more. The effect is printed as a negative number. Some of the results follow.
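Also: peak tail current of the secondary pulse compared with the same well before compound.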

human ether-à-go-go-related gene (hERG) potassium channel, sequence (Q12809 whole entry, looked up): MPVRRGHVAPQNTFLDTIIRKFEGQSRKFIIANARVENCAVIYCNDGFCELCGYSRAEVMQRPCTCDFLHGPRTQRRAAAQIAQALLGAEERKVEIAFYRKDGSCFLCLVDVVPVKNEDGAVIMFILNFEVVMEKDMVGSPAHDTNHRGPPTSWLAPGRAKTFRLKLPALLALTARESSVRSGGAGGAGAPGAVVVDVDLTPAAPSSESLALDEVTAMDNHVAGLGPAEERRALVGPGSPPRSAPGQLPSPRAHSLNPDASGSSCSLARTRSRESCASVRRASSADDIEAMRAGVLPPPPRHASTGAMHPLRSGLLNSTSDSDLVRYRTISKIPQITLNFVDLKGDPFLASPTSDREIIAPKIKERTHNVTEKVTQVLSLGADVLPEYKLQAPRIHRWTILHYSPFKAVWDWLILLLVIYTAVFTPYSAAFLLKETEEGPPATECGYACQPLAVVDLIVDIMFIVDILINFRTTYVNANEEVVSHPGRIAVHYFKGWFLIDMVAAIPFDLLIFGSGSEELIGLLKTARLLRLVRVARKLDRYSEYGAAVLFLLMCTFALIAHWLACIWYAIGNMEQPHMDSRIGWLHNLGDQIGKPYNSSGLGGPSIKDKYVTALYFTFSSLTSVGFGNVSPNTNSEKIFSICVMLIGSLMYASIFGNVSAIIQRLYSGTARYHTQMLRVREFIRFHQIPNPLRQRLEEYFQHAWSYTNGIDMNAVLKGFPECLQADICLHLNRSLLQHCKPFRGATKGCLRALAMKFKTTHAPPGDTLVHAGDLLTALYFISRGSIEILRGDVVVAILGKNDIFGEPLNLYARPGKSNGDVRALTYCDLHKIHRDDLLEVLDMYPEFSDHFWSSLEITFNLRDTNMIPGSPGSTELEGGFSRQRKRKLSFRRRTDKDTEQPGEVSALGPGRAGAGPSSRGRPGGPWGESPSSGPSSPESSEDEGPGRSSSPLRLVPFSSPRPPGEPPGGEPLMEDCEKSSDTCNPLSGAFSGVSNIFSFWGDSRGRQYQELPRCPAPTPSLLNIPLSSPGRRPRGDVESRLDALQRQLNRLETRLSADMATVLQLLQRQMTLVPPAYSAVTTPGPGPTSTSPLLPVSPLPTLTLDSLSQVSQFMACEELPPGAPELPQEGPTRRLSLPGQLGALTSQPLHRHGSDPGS

This experiment has as its target human ether-à-go-go-related gene (hERG) potassium channel (human, UniProt Q12809). Briefly: primary screen, population patch clamp on CHO cells stably expressing hERG.
In the case of `Cc1nn(-c2ccc(Cl)cc2Cl)c(C)c1C(=O)O`, the “hERG current change (%, negative = inhibition) at 10uM” value was 22.4%.

Take `COc1ccc(NC(C)=O)cc1NC(=O)CN1CCN(C(=O)c2ccco2)CC1`: the “hERG current change (%, negative = inhibition) at 10uM” value is reported as 13.9%.

Turning to `CN(c1ccccc1)S(=O)(=O)c1ccc(Cl)c(C(=O)Nc2ccncc2)c1`, the “hERG current change (%, negative = inhibition) at 10uM” value is on record as -5.35%.

As for `COc1cc(C(=O)N2CCN(c3ccccc3Cl)CC2)ccc1OCC(=O)N1CCOCC1`, the “hERG current change (%, negative = inhibition) at 10uM” value was -28.6%.

In the case of `O=S(=O)(N/N=C1\CC(c2ccccc2)Oc2ccccc21)c1ccccc1` (stereo not shown), the “hERG current change (%, negative = inhibition) at 10uM” value is -0.656%.

With `O=C(Cc1ccccc1[N+](=O)[O-])NC1CC2CCC1C2` (stereo not shown), the “hERG current change (%, negative = inhibition) at 10uM” value is recorded as -9.51%.

Turning to `Oc1ccc(N2Cc3ccccc3C2)cc1`, the “hERG current change (%, negative = inhibition) at 10uM” value turned out to be 22.8%.

For `COc1nc(NCCO)nc(Nc2cc(Cl)ccc2OC)n1`, the “hERG current change (%, negative = inhibition) at 10uM” value is -0.478%.

As for `CCn1c(SCC(=O)Nc2sc(C)c(C)c2C#N)nnc1C(C)C`, the “hERG current change (%, negative = inhibition) at 10uM” value turned out to be 11.5%.

Regarding `CSCCCN1CCCC(CO)(Cc2ccccc2F)C1` (stereo not shown), the “hERG current change (%, negative = inhibition) at 10uM” value was -38.3%.

In the case of `CC(OC(=O)c1cccs1)C(=O)NCC1CCCO1` (stereo not shown), the “hERG current change (%, negative = inhibition) at 10uM” value was -3%.

In the case of `CCS(=O)(=O)N1CCC(C(=O)Oc2ccccc2Br)CC1`, the “hERG current change (%, negative = inhibition) at 10uM” value was determined as 8.16%.

As to `O=C(Cn1nc(C(=O)O)c2ccccc2c1=O)Nc1cccc(Br)c1`, the “hERG current change (%, negative = inhibition) at 10uM” value was determined as 9.42%.

For the compound `CCCCNC(=O)Nc1ccccc1C(=O)NCCC`, the “hERG current change (%, negative = inhibition) at 10uM” value is reported as -3.27%.

In the case of `FC(F)Oc1ccccc1/C=N/n1cnc2ccccc21`, the “hERG current change (%, negative = inhibition) at 10uM” value was 13.2%.

On to `CCCCCCC(=O)Nc1c2c(nc3ccccc13)N(C)CC2`, for which the “hERG current change (%, negative = inhibition) at 10uM” value is recorded as -68%.

Consider `CSc1ccc(Cl)c(C(=O)OCC(=O)NC2CC2)c1`, for which the “hERG current change (%, negative = inhibition) at 10uM” value is recorded as 10.4%.

On to `Cc1cc(/C=C2\SC(=Nc3ccc(F)cc3)NC2=O)c(C)n1-c1ccc(S(N)(=O)=O)cc1`, for which the “hERG current change (%, negative = inhibition) at 10uM” value is recorded as 3.73%.

On to `COC(=O)c1ccccc1NC(=O)c1c(O)c2c([nH]c1=O)CCCC2`, for which the “hERG current change (%, negative = inhibition) at 10uM” value is on record as 7.77%.

Take `CCOC(=O)c1c(C)[nH]c2cc(Br)c(OC)cc12`: the “hERG current change (%, negative = inhibition) at 10uM” value came out at 18.3%.

In the case of `CCOc1ccccc1NC(=O)c1cc(-c2cc(OC)c(OC)c(OC)c2)nc2ccccc12`, the “hERG current change (%, negative = inhibition) at 10uM” value is listed as 19.8%.

As for `COc1ccc(/C(O)=C2/C(=O)C(=O)N(CCCN(C)C)C2c2ccccc2)cc1OC` (stereo not shown), the “hERG current change (%, negative = inhibition) at 10uM” value is reported as -4.33%.

Take `O=C(NCCN1CCOCC1)c1ccc(=O)oc1`: the “hERG current change (%, negative = inhibition) at 10uM” value came out at 17.6%.

Consider `O=c1[nH]nc(Cc2ccc([N+](=O)[O-])cc2)c2ccccc12`, for which the “hERG current change (%, negative = inhibition) at 10uM” value is on record as -70.2%.

Consider `Cc1[nH]ccc2c1[nH]c1cc(=O)ccc12`, for which the “hERG current change (%, negative = inhibition) at 10uM” value is -23.7%.

As for `Cc1cccc(S(=O)(=O)N2CN(CC3CCCO3)c3nc4ccccc4nc32)c1` (stereo not shown), the “hERG current change (%, negative = inhibition) at 10uM” value was -28.4%.

Turning to `O=C(Nc1ccc(S(=O)(=O)N2CCCC2)cc1)c1ccc(OCC2CCCO2)cc1` (stereo not shown), the “hERG current change (%, negative = inhibition) at 10uM” value stood at 0.877%.

For `CC1(C)C2CC[C@]3(C)C(CC=C4[C@@H]5C[C@@](C)(CO)[C@@H](O)C[C@]5(C(=O)O)CC[C@]43C)[C@@]2(C)CC[C@@H]1O` (stereo partly shown), the “hERG current change (%, negative = inhibition) at 10uM” value was 18%.

Turning to `CCc1ccccc1NC(=O)NC1CC2CCC(C1)N2Cc1ccco1` (stereo not shown), the “hERG current change (%, negative = inhibition) at 10uM” value worked out at 15.4%.

As for `Cc1csc2nc(CCNS(=O)(=O)c3ccc4c(c3)OCCO4)cn12`, the “hERG current change (%, negative = inhibition) at 10uM” value is on record as 2.18%.

With `COc1cccc2sc3ccc(C#CC4(O)CCCCC4)cc3c(=O)c12`, the “hERG current change (%, negative = inhibition) at 10uM” value was 2.07%.

With `CCn1c(Nc2ccccc2Cl)nc2ccccc21`, the “hERG current change (%, negative = inhibition) at 10uM” value is listed as 18.2%.

Turning to `O=C(Nc1ccc(C(=O)c2ccc(C(=O)O)c(C(=O)O)c2)cc1)c1ccccc1`, the “hERG current change (%, negative = inhibition) at 10uM” value is 17.2%.

Take `Cc1ccc(C(=O)Nc2cccc(NC(=O)c3ccc(C)o3)n2)o1`: the “hERG current change (%, negative = inhibition) at 10uM” value is recorded as -37.3%.

Turning to `O=[N+]([O-])c1ccccc1OCCN1CCOCC1`, the “hERG current change (%, negative = inhibition) at 10uM” value was -1.28%.

Take `COc1ccccc1C(=O)N/C(=C\c1ccc(Br)cc1)C(=O)NCCO`: the “hERG current change (%, negative = inhibition) at 10uM” value is -28.5%.

Take `CC1CCCCN1C(=O)Cn1cc(C#N)c2ccccc21` (stereo not shown): the “hERG current change (%, negative = inhibition) at 10uM” value is 5.63%.

Regarding `O=C(C[n+]1ccccc1)N/N=C/c1ccco1.[Cl-]`, the “hERG current change (%, negative = inhibition) at 10uM” value turned out to be 7.8%.

Take `CCOC(=O)NC(=O)C(=CNc1ccccc1C)C(=O)NC(=O)OCC`: the “hERG current change (%, negative = inhibition) at 10uM” value is given as -19.8%.

In the case of `CCc1cc2c(=O)c(-c3cnn(-c4ccccc4)c3)c(C)oc2cc1OCC(=O)Nc1ccc(F)c(F)c1`, the “hERG current change (%, negative = inhibition) at 10uM” value is listed as 5.02%.

As to `CCCCCNC(=O)C(C)NS(=O)(=O)c1ccc(OC)cc1` (stereo not shown), the “hERG current change (%, negative = inhibition) at 10uM” value was -6.87%.

Take `c1ccc(-c2nnc(-c3ccccc3)nn2)cc1`: the “hERG current change (%, negative = inhibition) at 10uM” value amounted to 5.69%.

For the compound `Clc1cccc(OCCN2CCNCC2)c1.O=C(O)C(=O)O`, the “hERG current change (%, negative = inhibition) at 10uM” value is on record as -6.36%.

For `CCCC(=O)Nc1cccc(NC(=O)c2ccc3c(c2)OCCO3)c1`, the “hERG current change (%, negative = inhibition) at 10uM” value amounted to 5.87%.

For the compound `COc1ccc(C(C[N+](=O)[O-])c2c(-c3ccccc3)cc3ccccn23)c(OC)c1` (stereo not shown), the “hERG current change (%, negative = inhibition) at 10uM” value is given as -3.97%.

With `CCOc1ccc(N2CC(O)=C(c3ccccc3)C2=N)cc1`, the “hERG current change (%, negative = inhibition) at 10uM” value was -10.4%.

Take `CCOC(=O)Cc1c(C)nc(-c2ccccc2)[nH]c1=O`: the “hERG current change (%, negative = inhibition) at 10uM” value is 4.89%.

For the compound `COc1ccc2c(Cl)c(-c3nnc4n3CCCCC4)sc2c1`, the “hERG current change (%, negative = inhibition) at 10uM” value was -51.2%.

Consider `CCc1ccc2[nH]c(=O)c(CN(Cc3ccccc3)C(=O)Nc3ccccc3OC)cc2c1`, for which the “hERG current change (%, negative = inhibition) at 10uM” value is 4.2%.

Regarding `Cc1nc2sccn2c(=O)c1S(=O)(=O)Nc1ccc(N2CCN(C)CC2)cc1`, the “hERG current change (%, negative = inhibition) at 10uM” value came to 21%.

With `Cc1cccc(OP(N)(=O)Oc2cccc(C)c2C)c1C`, the “hERG current change (%, negative = inhibition) at 10uM” value is given as 12.5%.

On to `CC1(C)Cc2cccc(OCC(=O)NCc3cccs3)c2O1`, for which the “hERG current change (%, negative = inhibition) at 10uM” value is -0.101%.

On to `Cc1onc(-c2ccccc2Cl)c1C(=O)Nc1ccc(Cl)cn1`, for which the “hERG current change (%, negative = inhibition) at 10uM” value turned out to be 1.42%.

With `CC1=C(C(=O)N(C)CCC#N)C2(CCCCC2)OC1=O`, the “hERG current change (%, negative = inhibition) at 10uM” value is -4.85%.

`COCC(C)NC(=S)N1CCN(c2ccccc2Cl)CC1` (stereo not shown): the “hERG current change (%, negative = inhibition) at 10uM” value is reported as 3.38%.

For the compound `N#Cc1c(-c2ccccc2)nc(SCc2nc(N)nc(N3CCCCC3)n2)[nH]c1=O`, the “hERG current change (%, negative = inhibition) at 10uM” value is -5.19%.

For `CN(c1ccc(OCC(=O)NCc2cccnc2)cc1)S(=O)(=O)c1ccc(Cl)cc1`, the “hERG current change (%, negative = inhibition) at 10uM” value was -58.4%.

Consider `Clc1cccc(Cl)c1CSc1nnc2ccccn12`, for which the “hERG current change (%, negative = inhibition) at 10uM” value is listed as 2.94%.
